{"source": "the supplement of paper PMC10126150", "note": "Sequences with one replicate were seen in a single cluster, so their values are uncertain.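 Further: ATP exposure 15 min at 22 °C before imaging.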"}
{"test_system": "ATP", "experiment": "switch fluorescence ratio, 500 uM ATP over buffer (Cy3 cluster intensity, sum of 5 cycles each) (fold (ratio)); higher = stronger signal-on switching upon ATP binding; sequences stand for … in TCGTCGGCAGCGTCAGATGTGTATAAGAGACAGTTTTTTTTTTTTTTTTTTTTTTTTT…TC", "details": "aptamer strand: ATP DNA aptamer (quencher-CACCTGGGGGAGTATTGCGGAGGAAGG + anchor), 100 nM annealed; ATP concentration: 500 uM; one replicate", "in_short": "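Switching-strand clusters labelled with Cy3 on a modified Illumina MiSeq flow-cell were annealed to 100 nM quencher-labelled ATP aptamer, imaged in selection buffer, and re-imaged after 15 min with 500 uM ATP at 22 °C. This was done over five cycles with NaOH stripping and re-annealing in between. The fluorescence ratio is summed target-cycle over summed buffer-cycle Cy3 intensity per cluster, averaged per switch-domain sequence, excluding clusters outside 100-1000 RFU.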"}
{"sequence": "GCTCGGCAAG", "switch fluorescence ratio": 1.51}
{"sequence": "GCTCGGTCCC", "switch fluorescence ratio": 1.01}
{"sequence": "GCTCGTATAA", "switch fluorescence ratio": 1.01}
{"sequence": "GCTCTAGAGG", "switch fluorescence ratio": 1}
{"sequence": "GCTCTATATG", "switch fluorescence ratio": 1}
{"sequence": "GCTCTATCCC", "switch fluorescence ratio": 1.05}
{"sequence": "GCTCTGAACA", "switch fluorescence ratio": 1.01}
{"sequence": "GCTCTTAATG", "switch fluorescence ratio": 0.967}
{"sequence": "GCTCTTGCGC", "switch fluorescence ratio": 0.974}
{"sequence": "GCTCTTGGGA", "switch fluorescence ratio": 0.981}
{"sequence": "GCTGACACTC", "switch fluorescence ratio": 1.03}
{"sequence": "GCTGACTTTA", "switch fluorescence ratio": 1.02}
{"sequence": "GCTGAGTGAT", "switch fluorescence ratio": 1.04}
{"sequence": "GCTGATACG", "switch fluorescence ratio": 1.06}
{"sequence": "GCTGATGAGT", "switch fluorescence ratio": 1.01}
{"sequence": "GCTGCAACGC", "switch fluorescence ratio": 1.11}
{"sequence": "GCTGCACGGA", "switch fluorescence ratio": 1.04}
{"sequence": "GCTGCATCCG", "switch fluorescence ratio": 1.32}
{"sequence": "GCTGCATTTT", "switch fluorescence ratio": 0.94}
{"sequence": "GCTGCCGATA", "switch fluorescence ratio": 1.13}
{"sequence": "GCTGCCGGGA", "switch fluorescence ratio": 1}
{"sequence": "GCTGCCTTTT", "switch fluorescence ratio": 1.01}
{"sequence": "GCTGCGAGGA", "switch fluorescence ratio": 1.02}
{"sequence": "GCTGCTGATG", "switch fluorescence ratio": 0.983}
{"sequence": "GCTGGATGAT", "switch fluorescence ratio": 1.01}
{"sequence": "GCTGGCCCGA", "switch fluorescence ratio": 0.993}
{"sequence": "GCTGGCGGGT", "switch fluorescence ratio": 1.05}
{"sequence": "GCTGGCTGGA", "switch fluorescence ratio": 0.999}
{"sequence": "GCTGGGTTA", "switch fluorescence ratio": 0.99}
{"sequence": "GCTGGTACGT", "switch fluorescence ratio": 0.956}
{"sequence": "GCTGGTAGAG", "switch fluorescence ratio": 1}
{"sequence": "GCTGTATCTC", "switch fluorescence ratio": 1.02}
{"sequence": "GCTGTCGCCC", "switch fluorescence ratio": 1.08}
{"sequence": "GCTGTGT", "switch fluorescence ratio": 1.04}
{"sequence": "GCTGTTGACT", "switch fluorescence ratio": 0.979}
{"sequence": "GCTGTTTGGC", "switch fluorescence ratio": 0.959}
{"sequence": "GCTTAAAAGC", "switch fluorescence ratio": 1.15}
{"sequence": "GCTTAAATTC", "switch fluorescence ratio": 1}
{"sequence": "GCTTAATGAA", "switch fluorescence ratio": 0.964}
{"sequence": "GCTTACTGAT", "switch fluorescence ratio": 1.02}
{"sequence": "GCTTAGTCGT", "switch fluorescence ratio": 0.983}
{"sequence": "GCTTATCCTC", "switch fluorescence ratio": 1.03}
{"sequence": "GCTTATCGAC", "switch fluorescence ratio": 1.06}
{"sequence": "GCTTATGCGT", "switch fluorescence ratio": 1.02}
{"sequence": "GCTTCAGGCG", "switch fluorescence ratio": 1.02}
{"sequence": "GCTTCGAGGA", "switch fluorescence ratio": 0.992}
{"sequence": "GCTTCGGGAG", "switch fluorescence ratio": 1.08}
{"sequence": "GCTTCTGCGG", "switch fluorescence ratio": 1.04}
{"sequence": "GCTTGAGTG", "switch fluorescence ratio": 1.04}
{"sequence": "GCTTGGCAGA", "switch fluorescence ratio": 1}
{"sequence": "GCTTGGGCCC", "switch fluorescence ratio": 1.02}
{"sequence": "GCTTGTAAGT", "switch fluorescence ratio": 1}
{"sequence": "GCTTGTACAG", "switch fluorescence ratio": 0.972}
{"sequence": "GCTTGTCCTT", "switch fluorescence ratio": 0.985}
{"sequence": "GCTTGTCTTT", "switch fluorescence ratio": 1.03}
{"sequence": "GCTTGTGAGA", "switch fluorescence ratio": 1.01}
{"sequence": "GCTTTACTAG", "switch fluorescence ratio": 1.01}
{"sequence": "GCTTTATTGT", "switch fluorescence ratio": 1.06}
{"sequence": "GCTTTCCT", "switch fluorescence ratio": 1.06}
{"sequence": "GCTTTCTCAG", "switch fluorescence ratio": 1.14}
{"sequence": "GCTTTCTCCC", "switch fluorescence ratio": 2.83}
{"sequence": "GCTTTCTTCG", "switch fluorescence ratio": 1.2}
{"sequence": "GCTTTGGCAC", "switch fluorescence ratio": 1}
{"sequence": "GCTTTGTTAT", "switch fluorescence ratio": 1.01}
{"sequence": "GCTTTGTTGC", "switch fluorescence ratio": 1.02}
{"sequence": "GCTTTTGACA", "switch fluorescence ratio": 1.02}
{"sequence": "GGAAAAACAA", "switch fluorescence ratio": 1.03}
{"sequence": "GGAAAAGGGG", "switch fluorescence ratio": 1.13}
{"sequence": "GGAAAAGTCG", "switch fluorescence ratio": 0.941}
{"sequence": "GGAAAATCGT", "switch fluorescence ratio": 1.03}
{"sequence": "GGAAACAAAG", "switch fluorescence ratio": 0.996}
{"sequence": "GGAAACCAGT", "switch fluorescence ratio": 1.01}
{"sequence": "GGAAACTTG", "switch fluorescence ratio": 1.05}
{"sequence": "GGAAATAATA", "switch fluorescence ratio": 1.09}
{"sequence": "GGAAATCTGG", "switch fluorescence ratio": 0.972}
{"sequence": "GGAAATGCAT", "switch fluorescence ratio": 1}
{"sequence": "GGAAATTTCC", "switch fluorescence ratio": 0.983}
{"sequence": "GGAACAATG", "switch fluorescence ratio": 0.988}
{"sequence": "GGAACATGTC", "switch fluorescence ratio": 0.997}
{"sequence": "GGAACCAACT", "switch fluorescence ratio": 1.08}
{"sequence": "GGAACCAGCA", "switch fluorescence ratio": 1.08}
{"sequence": "GGAACCATGA", "switch fluorescence ratio": 1.01}
{"sequence": "GGAACCCCGG", "switch fluorescence ratio": 1.06}
{"sequence": "GGAACCGCAT", "switch fluorescence ratio": 3.55}
{"sequence": "GGAACCTTCT", "switch fluorescence ratio": 2.44}
{"sequence": "GGAAGAGATT", "switch fluorescence ratio": 1.02}
{"sequence": "GGAAGAGCAA", "switch fluorescence ratio": 1.54}
{"sequence": "GGAAGCATAG", "switch fluorescence ratio": 1.22}
{"sequence": "GGAAGCCAAG", "switch fluorescence ratio": 0.998}
{"sequence": "GGAAGGCTAA", "switch fluorescence ratio": 1.2}
{"sequence": "GGAAGGGAGC", "switch fluorescence ratio": 0.999}
{"sequence": "GGAAGTAGAG", "switch fluorescence ratio": 1.01}
{"sequence": "GGAAGTGTTG", "switch fluorescence ratio": 1}
{"sequence": "GGAATAGAGC", "switch fluorescence ratio": 1.01}
{"sequence": "GGAATAGCTT", "switch fluorescence ratio": 0.983}
{"sequence": "GGAATATGGG", "switch fluorescence ratio": 0.993}
{"sequence": "GGAATATTGT", "switch fluorescence ratio": 1.02}
{"sequence": "GGAATCACGC", "switch fluorescence ratio": 1}
{"sequence": "GGAATCCCAT", "switch fluorescence ratio": 1.06}
{"sequence": "GGAATCTGTG", "switch fluorescence ratio": 1.01}
